These results are taken from PMC4336329 (PLoS ONE, 2015).

About 2,200 (0.71%) of roughly 310,000 compounds showed an effect of 50% or more. The effect is printed as a negative number. This is one part of the list.

The target in this experiment is human ether-à-go-go-related gene (hERG) potassium channel (human, UniProt Q12809). In words: primary screen, population patch clamp on CHO cells stably expressing hERG.
human ether-à-go-go-related gene (hERG) potassium channel, sequence (Q12809 whole entry, looked up): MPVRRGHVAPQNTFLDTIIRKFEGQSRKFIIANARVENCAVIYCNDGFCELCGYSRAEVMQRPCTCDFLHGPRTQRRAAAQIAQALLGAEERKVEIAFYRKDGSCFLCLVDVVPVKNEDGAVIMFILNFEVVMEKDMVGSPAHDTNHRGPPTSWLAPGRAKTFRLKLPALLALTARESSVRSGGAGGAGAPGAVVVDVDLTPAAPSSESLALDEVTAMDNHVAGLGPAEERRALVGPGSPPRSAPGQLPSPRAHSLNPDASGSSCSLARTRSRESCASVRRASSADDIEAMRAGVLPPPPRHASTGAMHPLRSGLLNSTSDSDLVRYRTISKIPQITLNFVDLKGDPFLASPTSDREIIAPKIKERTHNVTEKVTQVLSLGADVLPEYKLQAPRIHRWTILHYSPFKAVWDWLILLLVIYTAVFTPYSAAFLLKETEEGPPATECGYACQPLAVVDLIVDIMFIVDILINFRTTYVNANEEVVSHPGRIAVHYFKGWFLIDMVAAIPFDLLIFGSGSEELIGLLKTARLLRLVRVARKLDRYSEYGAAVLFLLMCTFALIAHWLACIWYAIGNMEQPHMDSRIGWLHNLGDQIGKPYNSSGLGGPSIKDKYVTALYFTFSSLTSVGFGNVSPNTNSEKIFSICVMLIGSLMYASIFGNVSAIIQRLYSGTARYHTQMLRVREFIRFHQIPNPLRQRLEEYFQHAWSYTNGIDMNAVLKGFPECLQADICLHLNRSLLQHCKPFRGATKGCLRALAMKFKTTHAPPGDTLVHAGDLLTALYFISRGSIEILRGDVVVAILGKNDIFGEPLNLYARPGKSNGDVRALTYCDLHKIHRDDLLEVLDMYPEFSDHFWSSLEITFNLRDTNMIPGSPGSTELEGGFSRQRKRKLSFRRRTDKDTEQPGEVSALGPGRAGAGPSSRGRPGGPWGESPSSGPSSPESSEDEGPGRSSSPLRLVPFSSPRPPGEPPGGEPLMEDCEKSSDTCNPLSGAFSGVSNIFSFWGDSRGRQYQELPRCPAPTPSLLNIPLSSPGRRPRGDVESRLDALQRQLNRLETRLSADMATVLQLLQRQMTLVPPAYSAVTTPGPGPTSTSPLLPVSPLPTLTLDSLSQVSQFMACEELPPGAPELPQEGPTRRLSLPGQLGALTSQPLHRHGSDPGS
With `N#Cc1ccc(-c2ccc(OCC(=O)Nc3cccnc3)cc2)cc1`, the “hERG current change (%, negative = inhibition) at 1uM” value is recorded as 16.3%.

Regarding `CCOC(=O)N1CCN(C(=O)CN(C)S(=O)(=O)c2ccc(F)cc2)CC1`, the “hERG current change (%, negative = inhibition) at 1uM” value worked out at 24.6%. The value for `O=C(CCc1nc2ccccc2c(=O)[nH]1)OCc1nnc(-c2ccccc2)o1` was 9.39%; that for `CCC(=O)N1c2ccccc2NC2=C(C(=O)CC(C)(C)C2)C1c1ccc(O)c(OC)c1` (centres unmarked) was 15.6%.

With `CSc1nc(NCC(C)C)c2c3c(sc2n1)CN(C)CC3`, the “hERG current change (%, negative = inhibition) at 1uM” value is on record as -9.92%. The value for `O=c1[nH]cn[nH]1` was 17.7%; that for `Cc1n[nH]c(=O)c2c(NC(=O)CSc3nncn3C(C)C)oc(C)c12` was 8.24%; that for `CSc1ccc(C=O)cc1` was 9.69%. With `CNC(=O)c1[nH]cnc1C(=O)Nc1ccc(Cl)cc1`, the “hERG current change (%, negative = inhibition) at 1uM” value is recorded as 8.47%. The value for `Cc1ccc(NC(=O)CCN2CC(C)OC(C)C2)cc1C.Cl` (centres unmarked) was 15.3%; that for `CC(=O)OCC(OC(C)=O)C(OC(C)=O)C(OC(C)=O)C(=O)Nc1ccc(C)cc1` (centres unmarked) was -3.41%; that for `CCOc1ccc(N(CC(=O)NCCSCc2ccccc2)S(=O)(=O)c2ccccc2)cc1` was 8.64%.

On to `Cc1cc(-c2ccccc2)nc(N/N=C/c2ccccc2)n1`, for which the “hERG current change (%, negative = inhibition) at 1uM” value turned out to be 5.77%. The value for `CCOc1cc(N2CCOCC2)c(OCC)cc1NC(=O)Cn1cnc2c(=O)n(C)c(=O)n(C)c21` was -1.22%; that for `COC(=O)CN1C(=O)N(c2ccccc2)C(N(O)C(=O)Nc2ccccc2)C1(C)C` (centres unmarked) was 11.9%.

With `Cc1ccc(-c2nnn(CC(=O)N(Cc3cccs3)C(C(=O)NC3CCCC3)c3ccncc3)n2)cc1` (centres unmarked), the “hERG current change (%, negative = inhibition) at 1uM” value is listed as 1.73%. The value for `COc1ccc(CCNC(=O)CCS(=O)(=O)c2ccc3c(c2)NC(=O)CS3)cc1OC` was 3.63%; that for `CCN(Cc1ccncc1)C(=S)Nc1ccccc1` was 3.78%.

In the case of `COc1ccc(C)cc1S(=O)(=O)N(CC(=O)Nc1cccc([N+](=O)[O-])c1)c1ccc(C)c(C)c1`, the “hERG current change (%, negative = inhibition) at 1uM” value came out at 0.946%. As to `Cc1noc(C)c1C(=O)N1CCc2ccccc21`, the “hERG current change (%, negative = inhibition) at 1uM” value is 0.0406%. The value for `Cc1c(Cl)cccc1NCC(=O)NN=C1CCCC1` was 12.1%; that for `N#CC1=C2SCN(c3ccccc3)CN2C(=O)CC1c1c(Cl)cccc1Cl` (centres unmarked) was 10.2%.

As to `CCC1(c2ccc(F)cc2)NC(=O)N(CC(=O)N(CCC#N)c2ccccc2)C1=O` (centres unmarked), the “hERG current change (%, negative = inhibition) at 1uM” value is 11.9%. The value for `O=C(OCN1C(=O)c2ccccc2C1=O)c1cccc(OC(F)F)c1` was 13.4%; that for `CCOc1ccccc1CN1CCN(CCCc2ccccc2)CC1CCO` (centres unmarked) was -30%; that for `CCCn1nnc(NC(=O)Cc2ccc(Cl)cc2)n1` was 11.7%.

In the case of `N#CC(c1ccc(O)cc1)N1CCCCC1` (centres unmarked), the “hERG current change (%, negative = inhibition) at 1uM” value was 3.61%. The value for `COc1ccccc1-c1nnc(SCc2nc3ccccc3s2)n1C` was -4.02%; that for `COc1ccc(C2CC(c3ccccc3OC(=O)/C=C/c3ccccc3)=NN2C(C)=O)cc1` (centres unmarked) was 9.58%; that for `O=C(O)C1CCCCC1C(=O)Nc1ccccc1F` (centres unmarked) was 10.8%. For `CN(Cc1ccccc1)C(=O)c1cccc(C(=O)N(C)Cc2ccccc2)c1`, the “hERG current change (%, negative = inhibition) at 1uM” value is 4.24%. `Cc1cc(OCC(=O)N[C@@H](CSCc2ccccc2)C(=O)O)c2c(C)c(C)c(=O)oc2c1`: the “hERG current change (%, negative = inhibition) at 1uM” value was 12.1%. The value for `O=C(c1cncc(Br)c1)N1CCc2ccccc2C1` was -9.01%; that for `C/C(=N\NC(=O)c1ccc2ccccc2c1)c1cccs1` was 12.8%.

Regarding `CC(C(=O)O)N1c2cccc3cccc(c23)S1(=O)=O` (centres unmarked), the “hERG current change (%, negative = inhibition) at 1uM” value is 3.6%. The value for `O=[N+]([O-])c1ccccc1Sc1nccn1Cc1ccccc1` was 0.444%.

Take `CC(=O)N1CCN(C(=O)c2ccc3c(c2)OCCO3)CC1`: the “hERG current change (%, negative = inhibition) at 1uM” value amounted to 9.73%. The value for `CC(C)CC(=O)Nc1ccc2oc(-c3cccnc3)nc2c1` was 15.3%. The value for `O=C(NC(=S)Nc1ccccc1Cl)c1cnn2c(C(F)(F)F)cc(C(F)(F)F)nc12` was 7.88%.

With `COc1ccc(NC(=O)c2cc(-c3ccc(C)o3)nc3ccccc23)cc1OC`, the “hERG current change (%, negative = inhibition) at 1uM” value was found to be 10.2%. The value for `COc1cccc(N2CCN(C(=O)CNC(=O)c3sc4ccccc4c3Cl)CC2)c1` was 8.64%. Take `Cl.FC(F)(F)c1cccc(Nc2ncnc3ccccc23)c1`: the “hERG current change (%, negative = inhibition) at 1uM” value came to 4.9%.

`CCOc1ccc(NC(=O)CN(C)CC(=O)Nc2cc(Cl)ccc2C#N)cc1OCC`: the “hERG current change (%, negative = inhibition) at 1uM” value came to 8.26%. On to `N#C/C(=C\c1cccc([N+](=O)[O-])c1)C(=O)Nc1cccnc1`, for which the “hERG current change (%, negative = inhibition) at 1uM” value worked out at 9.66%.
